# This is one part of the list.
# B1: PX9896A-bth-573-26-573 (Bacteroides thetaiotaomicron) (protein)
# chain: ETNNLKTKEDMYKYFGTSKSMLTHVYSYMPQGYQLFATSGGIFTEDRYSMRDCASDDGEFGAYADNIQNTNNGNWSPIKTYDDSWTLYRGIRAANSFIAEIAQVDFTRYEHDGQYTNWMKQLKYFPYEARVLRAHYFFELARRYGDIAMPLEVLTEEEANTIGKTPFSEVISFIVSECDDAANNLPDSYVNEPGAEIGRVTKGFAMAVKSKALLYAASKLHNPSMDTELWKKSAKAAIDIINTGLYSLDPQESANNLDSKEVVLMRINGDDSDFEMFNLPLRMTAGTRTSSLIPYSNYPSQNLVDAFETVNGYKVTLENTGWVCEDPAFDPQSPYENRDKRFYRAILANGMSFKDYTIETFKGGADDGIVSQGGSPTGYFLRKYIQEATSFEPGKEAVSKHHWVIYRYAETLLTYAESMVNAFNDVNYTDETYKYSALWAINEVRKNADMPLIPSMGKDEFMERLYNEWRVEFAFEDHRFWDVRRWKIADTTQRELYGVKIEKQADGTFNFYKNLYETRNWRDCMYLYPIPQSELYKNTNLNPQNTGW
# What was measured:
# Test in all cases: glycan array binding signal (z-score within array); higher = stronger binding
# Settings in all cases: glycan notation: IUPAC condensed, linker removed
# [1] = molecular target: Man(a1-2)Man(a1-3)[Man(a1-2)Man(a1-6)]Man(a1-6)[Man(a1-2)Man(a1-2)Man(a1-3)]Man
# How it was run: (§1)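 The Consortium for Functional Glycomics database supplied 3228 glycan arrays, of which those lacking an available protein sequence were dropped. The binding signal, a within-array Z-score, was averaged across arrays of the same protein sequence and across linkers. Negative scores can be read as non-binding.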
# [2] = molecular target: Man(a1-2)Man(a1-3)[Man(a1-2)Man(a1-6)]Man(a1-6)[Man(a1-2)Man(a1-2)Man(a1-3)]Man(b1-4)GlcNAc(b1-4)GlcNAc
# How it was run: as §1
# [3] = molecular target: Man(a1-2)Man(a1-3)[Man(a1-6)]Man(a1-6)[Man(a1-2)Man(a1-3)]Man(b1-4)GlcNAc(b1-4)GlcNAc
# How it was run: as §1
# [4] = molecular target: Man(a1-2)Man(a1-6)[Man(a1-3)]Man(a1-6)[Man(a1-2)Man(a1-2)Man(a1-3)]Man
# How it was run: as §1
# [5] = molecular target: Man(a1-2)Man(a1-6)[Man(a1-3)]Man(a1-6)[Man(a1-2)Man(a1-2)Man(a1-3)]Man(b1-4)GlcNAc(b1-4)GlcNAc
# How it was run: as §1
# Man(a1-3)[Man(a1-6)]Man = molecular target: Man(a1-3)[Man(a1-6)]Man
# How it was run: as §1
# [6] = molecular target: Man(a1-3)[Man(a1-6)]Man(a1-6)[Man(a1-2)Man(a1-3)]Man(b1-4)GlcNAc(b1-4)GlcNAc
# How it was run: as §1
# [7] = molecular target: Man(a1-3)[Man(a1-6)]Man(a1-6)[Man(a1-3)]Man
# How it was run: as §1
# [8] = molecular target: Man(a1-3)[Man(a1-6)]Man(a1-6)[Man(a1-3)]Man(b1-4)GlcNAc(b1-4)GlcNAc
# How it was run: as §1
# [9] = molecular target: Man(a1-3)[Man(a1-6)]Man(b1-4)GlcNAc(b1-4)GlcNAc
# How it was run: as §1
# [10] = molecular target: Man(a1-3)[Man(a1-6)]Man(b1-4)GlcNAc(b1-4)[Fuc(a1-6)]GlcNAc
# How it was run: as §1
# Man(a1-6)Man = molecular target: Man(a1-6)Man
# How it was run: as §1
# Man(b1-4)GlcNAc = molecular target: Man(b1-4)GlcNAc
# How it was run: as §1
# MurNAc(b1-4)GlcNAc = molecular target: MurNAc(b1-4)GlcNAc
# How it was run: as §1
# Neu5Ac(a2-3)Gal = molecular target: Neu5Ac(a2-3)Gal
# How it was run: as §1
# [11] = molecular target: Neu5Ac(a2-3)Gal(b1-3)GalNAc
# How it was run: as §1
# [12] = molecular target: Neu5Ac(a2-3)Gal(b1-3)GalNAc(b1-3)Gal(a1-4)Gal(b1-4)Glc
# How it was run: as §1
# [13] = molecular target: Neu5Ac(a2-3)Gal(b1-3)GalNAc(b1-4)[Neu5Ac(a2-3)]Gal(b1-4)Glc
# How it was run: as §1
# [14] = molecular target: Neu5Ac(a2-3)Gal(b1-3)GalNAc(b1-4)[Neu5Ac(a2-8)Neu5Ac(a2-3)]Gal(b1-4)Glc
# How it was run: as §1
# [15] = molecular target: Neu5Ac(a2-3)Gal(b1-3)GalNAc6S
# How it was run: as §1
# [16] = molecular target: Neu5Ac(a2-3)Gal(b1-3)GlcNAc
# How it was run: as §1
# [17] = molecular target: Neu5Ac(a2-3)Gal(b1-3)GlcNAc(b1-2)Man
# How it was run: as §1
# [18] = molecular target: Neu5Ac(a2-3)Gal(b1-3)GlcNAc(b1-2)Man(a1-3)[GlcNAc(b1-4)][Neu5Ac(a2-3)Gal(b1-3)GlcNAc(b1-2)Man(a1-6)]Man(b1-4)GlcNAc(b1-4)GlcNAc
# How it was run: as §1
# [19] = molecular target: Neu5Ac(a2-3)Gal(b1-3)GlcNAc(b1-2)Man(a1-3)[Neu5Ac(a2-3)Gal(b1-3)GlcNAc(b1-2)Man(a1-6)]Man(b1-4)GlcNAc(b1-4)GlcNAc
# How it was run: as §1
# [20] = molecular target: Neu5Ac(a2-3)Gal(b1-3)GlcNAc(b1-3)Gal(b1-3)GlcNAc
# How it was run: as §1
# [21] = molecular target: Neu5Ac(a2-3)Gal(b1-3)GlcNAc(b1-3)Gal(b1-4)GlcNAc
# How it was run: as §1
# [22] = molecular target: Neu5Ac(a2-3)Gal(b1-3)GlcNAc(b1-3)GalNAc
# How it was run: as §1
# [23] = molecular target: Neu5Ac(a2-3)Gal(b1-3)GlcNAc(b1-4)Gal(b1-4)Glc
# How it was run: as §1
# [24] = molecular target: Neu5Ac(a2-3)Gal(b1-3)GlcNAc(b1-6)GalNAc
# How it was run: as §1
# [25] = molecular target: Neu5Ac(a2-3)Gal(b1-3)GlcNAc6S
# How it was run: as §1
binder,measurement,setting,value
B1,glycan array binding signal (z-score),[1],0.109
same,glycan array binding signal (z-score),[2],-0.101
same,glycan array binding signal (z-score),[3],-0.606
same,glycan array binding signal (z-score),[4],-0.132
same,glycan array binding signal (z-score),[5],-0.735
same,glycan array binding signal (z-score),Man(a1-3)[Man(a1-6)]Man,-0.332
same,glycan array binding signal (z-score),[6],0.671
same,glycan array binding signal (z-score),[7],-0.035
same,glycan array binding signal (z-score),[8],-0.145
same,glycan array binding signal (z-score),[9],-0.508
same,glycan array binding signal (z-score),[10],-0.666
same,glycan array binding signal (z-score),Man(a1-6)Man,0.028
same,glycan array binding signal (z-score),Man(b1-4)GlcNAc,-0.822
same,glycan array binding signal (z-score),MurNAc(b1-4)GlcNAc,-0.548
same,glycan array binding signal (z-score),Neu5Ac(a2-3)Gal,0.151
same,glycan array binding signal (z-score),[11],-0.359
same,glycan array binding signal (z-score),[12],0.015
same,glycan array binding signal (z-score),[13],-0.656
same,glycan array binding signal (z-score),[14],-0.067
same,glycan array binding signal (z-score),[15],-0.088
same,glycan array binding signal (z-score),[16],-0.406
same,glycan array binding signal (z-score),[17],-0.517
same,glycan array binding signal (z-score),[18],-0.678
same,glycan array binding signal (z-score),[19],0.799
same,glycan array binding signal (z-score),[20],-0.806
same,glycan array binding signal (z-score),[21],0.343
same,glycan array binding signal (z-score),[22],-0.502
same,glycan array binding signal (z-score),[23],-0.475
same,glycan array binding signal (z-score),[24],-0.467
same,glycan array binding signal (z-score),[25],0.324
